Structures are written as SMILES. Among all 310,000 compounds or so, about 14,000 (4.5%) showed an effect of 50% or more. The effect is printed as a negative number. The list shows a part of the results.
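Further: peak tail current of the secondary pulse compared with the same well before compound.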

human ether-à-go-go-related gene (hERG) potassium channel, sequence (Q12809 whole entry, looked up): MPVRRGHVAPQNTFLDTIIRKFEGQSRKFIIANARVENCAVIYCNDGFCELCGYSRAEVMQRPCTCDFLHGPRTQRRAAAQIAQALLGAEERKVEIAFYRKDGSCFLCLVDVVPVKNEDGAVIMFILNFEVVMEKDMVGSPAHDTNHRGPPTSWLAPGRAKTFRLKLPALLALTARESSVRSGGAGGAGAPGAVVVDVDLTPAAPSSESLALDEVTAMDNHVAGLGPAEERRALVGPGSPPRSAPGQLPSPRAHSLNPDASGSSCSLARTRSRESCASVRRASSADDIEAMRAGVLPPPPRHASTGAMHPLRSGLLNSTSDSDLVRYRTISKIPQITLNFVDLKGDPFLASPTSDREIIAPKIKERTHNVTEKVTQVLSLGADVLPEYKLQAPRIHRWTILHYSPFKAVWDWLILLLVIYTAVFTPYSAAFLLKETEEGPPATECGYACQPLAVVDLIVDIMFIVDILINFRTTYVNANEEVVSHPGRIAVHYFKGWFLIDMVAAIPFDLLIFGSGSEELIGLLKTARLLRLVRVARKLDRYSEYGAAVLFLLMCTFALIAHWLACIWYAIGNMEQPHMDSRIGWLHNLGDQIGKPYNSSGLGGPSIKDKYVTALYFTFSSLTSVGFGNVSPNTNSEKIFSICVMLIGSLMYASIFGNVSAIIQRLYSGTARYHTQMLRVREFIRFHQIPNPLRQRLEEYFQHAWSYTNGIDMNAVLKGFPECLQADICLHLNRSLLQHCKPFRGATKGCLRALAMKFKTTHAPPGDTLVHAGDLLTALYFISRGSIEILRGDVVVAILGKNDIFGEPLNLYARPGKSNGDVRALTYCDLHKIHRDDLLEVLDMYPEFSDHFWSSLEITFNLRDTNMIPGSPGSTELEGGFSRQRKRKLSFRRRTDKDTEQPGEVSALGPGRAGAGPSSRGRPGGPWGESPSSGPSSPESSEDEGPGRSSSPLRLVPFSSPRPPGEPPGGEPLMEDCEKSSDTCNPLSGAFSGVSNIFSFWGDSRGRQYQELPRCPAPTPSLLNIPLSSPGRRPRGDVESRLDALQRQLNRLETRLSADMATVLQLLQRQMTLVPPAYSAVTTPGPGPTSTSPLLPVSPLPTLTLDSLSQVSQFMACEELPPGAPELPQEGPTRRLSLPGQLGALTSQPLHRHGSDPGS

This test has as its target human ether-à-go-go-related gene (hERG) potassium channel (human, UniProt Q12809). Briefly: primary screen, population patch clamp on CHO cells stably expressing hERG.
For the compound `COc1ccc([C@H]2CC(=O)C=C(c3ccc(F)cc3OCc3ccccc3)C2)cc1`, the “hERG current change (%, negative = inhibition) at 10uM” value is -1.77%.
For `COc1cccc([C@@H]2CC=C(C(=O)O)[C@H](c3ccccc3)N2S(=O)(=O)c2ccc(C)cc2)c1`, the “hERG current change (%, negative = inhibition) at 10uM” value was determined as 5.93%.
Consider `Cc1ccc(-n2cc(-c3ccccc3)c3c(NN4CCOCC4)ncnc32)cc1`, for which the “hERG current change (%, negative = inhibition) at 10uM” value is given as -23.5%.
In the case of `CCOC(=O)c1cccc(NC(=O)c2ccc3c(c2)C(=O)N(CC2CCCO2)C3=O)c1` (stereo not drawn) it was -30.3%.
For `COc1cccc(NC(=O)COC(=O)c2nc(Cl)ccc2Cl)c1`, the “hERG current change (%, negative = inhibition) at 10uM” value is listed as 22.5%.
The value for `CCN1CCc2c(sc(NC(=S)NC(=O)c3ccc(Cl)cc3)c2C(N)=O)C1` was -24.4%.
With `COc1ccc(-c2ccc(OC)cc2C(=O)O)cc1`, the “hERG current change (%, negative = inhibition) at 10uM” value is on record as -12.5%.
The value for `O=c1[nH]c(-c2cccnc2)nc2sc(-c3ccccc3)cc12` was 7.5%.
In the case of `CCN(CC)C(=O)C(=O)Nc1ccc(F)c(Cl)c1` it was 19.8%; in that of `O=C(c1ccc(CS(=O)(=O)c2ccc(Br)cc2)o1)N1CCN(c2ccccn2)CC1`, -36%; in that of `Brc1ccc(COc2cccc3cccnc23)cc1`, 8.24%.
Take `COc1ccc(C(=O)CCNc2ccc(C)c(Cl)c2)cc1`: the “hERG current change (%, negative = inhibition) at 10uM” value is on record as -2.55%.
Turning to `CC1(c2nnc(-c3ccc(F)cc3)o2)CC(c2c(Cl)cccc2Cl)=NO1` (stereo not drawn), the “hERG current change (%, negative = inhibition) at 10uM” value is listed as -37%.
The value for `Nc1nonc1C(=O)NCCNS(=O)(=O)c1ccc(F)cc1` was 17.5%; that for `CC1=C(C(=O)OCc2ccccc2)C(c2ccsc2)C(C#N)=C(N)O1` (stereo not drawn) was -6.93%.
Regarding `Cc1cc(N/C(=N/S(=O)(=O)c2ccc(F)cc2)c2ccccc2)n(-c2ccccc2)n1`, the “hERG current change (%, negative = inhibition) at 10uM” value was determined as 17.3%.
On to `CC(=O)c1ccc2c(ccc3ccccc32)c1`, for which the “hERG current change (%, negative = inhibition) at 10uM” value worked out at 26.4%.
In the case of `CCOC(=O)N1CCN(C(=O)/C=C/c2ccc(OC)cc2)CC1` it was -17.8%.
As to `CCNC(=O)c1sc(=S)n(CC)c1N`, the “hERG current change (%, negative = inhibition) at 10uM” value came out at 6.7%.
Turning to `COc1ccc(NC(=O)C2=Cc3ccccc3OC2)cc1`, the “hERG current change (%, negative = inhibition) at 10uM” value turned out to be 3.35%.
In the case of `COC(=O)COc1ccc(S(=O)(=O)NCCC2=CCCCC2)cc1`, the “hERG current change (%, negative = inhibition) at 10uM” value is -7.12%.
The value for `COC(=O)c1ccc(Sc2ccc(F)cc2)c(N)c1` was 5.2%; that for `CCCc1nc(SCC(=O)N2CCN(c3ccccc3)CC2)c2c(=O)n(C)c(=O)n(C)c2n1` was 5.67%.
In the case of `C[C@H]1O[C@H](O[C@H]2[C@H](O)[C@@H](O)[C@@H](O[C@H]3[C@H](O)[C@@H](O)C(O)O[C@@H]3CO)O[C@@H]2CO)[C@H](O)[C@@H](O)[C@@H]1N[C@H]1C=C(CO)[C@@H](O)[C@H](O)[C@H]1O` (stereo partly drawn) it was -4.27%.
With `O=C(NC1CCCCC1)c1ccc(NS(=O)(=O)c2cccc3cccnc23)cc1`, the “hERG current change (%, negative = inhibition) at 10uM” value is reported as 16.3%.
In the case of `CSc1ccc2[nH]c(=O)cc(C)c2c1` it was -1.46%.
In the case of `COc1ccc(NC(=O)Cn2c(=O)n(CC(=O)NCc3ccco3)c(=O)c3ccccc32)cc1` it was 20%; in that of `CC(C)n1cc(C(=O)N2CCCC(N3CCN(c4ccc(F)cc4)CC3)C2)cn1` (stereo not drawn), -34.9%; in that of `Cc1ccc2c(c1)c1c3n2CCN(CC(O)CNC(C)C)C3CCC1.Cl.O` (stereo not drawn), -11.4%.
In the case of `CC(C)NS(=O)(=O)c1ccc(CCC(=O)N2CCOCC2)cc1` it was 2.25%; in that of `CN1CCN(Cc2c(C#N)c3ccccc3n2C)CC1`, -33.6%.
As to `Cc1cnc([N+](=O)[O-])n1CCOC(=O)NC(=O)c1c(F)cccc1F`, the “hERG current change (%, negative = inhibition) at 10uM” value is 13.7%.
In the case of `Cc1ccccc1CNC(=O)C(=O)NCC1OCCCN1S(=O)(=O)c1cccs1` (stereo not drawn) it was 9.97%; in that of `COc1ccc(/C=C/c2nc(C)c(-c3ccccc3)c(=O)[nH]2)cc1OC`, 12.1%; in that of `COC(CNC(=O)c1ccc2c(c1)ncn2-c1cc(C)cc(C)c1)OC`, -22.5%.
The value for `CC(CN1CCCCC1)OC(=O)COc1ccc(Cl)cc1.Cl` (stereo not drawn) was 19.9%; that for `Cc1cccc(C)c1NC(=O)CN(C)CC(=O)c1c(N)n(Cc2ccccc2)c(=O)n(C)c1=O` was 10.6%.
In the case of `CCOCCn1c(N2CCN(c3ccc(OC)cc3)CC2)nc2c1c(=O)n(C)c(=O)n2C` it was -26.8%; in that of `CCOC(=O)C(O)C1CCc2c([nH]c3ccc(C)cc23)C1=O` (stereo not drawn), -5.97%; in that of `C#CCOCCOCCOCCNc1nc(N2CCN(C(=O)[C@H](CCC(=O)O)n3cc(C(N)CO)nn3)CC2)nc(N2CCN(C(=O)[C@H](Cc3ccc(O)cc3)n3cc(C(N)[C@H](C)CC)nn3)CC2)n1.Cl` (stereo partly drawn), 9.89%.
With `Cc1cc(C)cc(NC(=S)Nc2ccc(Cl)c(Cl)c2)c1`, the “hERG current change (%, negative = inhibition) at 10uM” value is recorded as 12.6%.
Take `CNC(=O)CC(CC(=O)c1ccccc1)c1ccccc1` (stereo not drawn): the “hERG current change (%, negative = inhibition) at 10uM” value is 10%.

The values above are taken from publication PMC4336329 (PLoS ONE, 2015).
